Measured values: PubChem BioAssay AID588855 (National Center for Advancing Translational Sciences (NCATS), 2011)
Hit rate of the full screen: of about 410,000 compounds, about 5,000 (1.2%) were called active. Inconclusive means that the source gave no clear call. Such entries were picked first, then a sample of the others. Calls follow the shape of the dose curve; as a rule, active = well fitted inhibition curve with a large enough effect; inconclusive = small, poorly fitted or top-dose-only effect; inactive = no such curve, though single readings can be large or run the other way. Potencies beside an inconclusive call are fits to weak or partial responses and may not hold up.

Experiment: qHTS for Inhibitors of TGF-b; also: nearly all actives have a fitted effect of over 65% in size
Conditions: HepG2 CAGA-GFP TGF-b/SMAD3 reporter, GFP fluorescence, 18 h, TGF-beta stimulated, 500 pg/mL final; series mostly up to 46.1 µM; activity, negative = inhibition: at the top concentration
Method in brief: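 Cell-based qHTS in HEPG2 carrying a CAGA-GFP Smad reporter; compounds added before 500 pg/mL final TGF-beta, 18 h incubation at 37 degrees C, GFP fluorescence quantified per cell by imaging cytometry.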
% is scaled to controls: 0 for no effect and ±100 for the full control effect; potency is read from the fitted curve at half-maximal effect; tags tell the direction and shape of the fitted curve.

Row | SMILES | Potency | activity, negative = inhibition
1 | COC(=O)Cc1nnc(Nc2cccc(C)c2)c2ccccc12 | inconclusive: 35.5 µM [inhibitor, single point] | 
2 | COc1ccc(N2CCN(C(=O)c3cn(C)c4ccc(S(=O)(=O)N(C)C5CCCCC5)cc4c3=O)CC2)cc1 |  | inactive: 3.54%
3 | COC(=O)CCCC1=CC2=CC(=O)C(C)(OC(=O)c3cccs3)C(=O)C2=CN1c1ccc(OC)cc1 (stereo not given) | inconclusive: 0.224 µM [inhibitor, full curve, poor fit] | 
4 | CC(=O)N1CCN(c2ccc(NC(=O)c3cccc(OCc4ccccc4)c3)cc2)CC1 | inconclusive: 0.891 µM [inhibitor, partial curve, poor fit] | 
5 | O=C(c1ccccc1F)N1CCN(S(=O)(=O)c2ccc3ccccc3c2)CC1 | inconclusive: 22.4 µM [inhibitor, single point] | 
6 | COCCNC(=S)N1CCN(c2nc(-c3ccccc3)cs2)CC1 | inconclusive: 35.5 µM [inhibitor, single point] | 
7 | CSc1ccc(C(=O)N2CCc3ccc(NC(=O)c4ccccn4)cc3C2)cc1 | inconclusive: 35.5 µM [inhibitor, single point] | 
8 | COCCNC(=O)c1ccc2c(c1)N(Cc1ccc(C(F)(F)F)cc1)C(=O)c1ccccc1S2 | inconclusive: 25.1 µM [inhibitor, partial curve, poor fit] | 
9 | Cc1ccc(S(=O)(=O)N2CCN(c3cc4c(cc3[N+](=O)[O-])n(C)c(=O)n4C)CC2)cc1 | inconclusive: 35.5 µM [inhibitor, single point] | 
10 | Cc1ccc2cccc(OCC(=O)Nc3cccc(S(=O)(=O)N4CCCC4)c3)c2n1 | inconclusive: 5.62 µM [inhibitor, single point] | 
11 | CCn1cc([N+](=O)[O-])c(C(=O)N2N=C(c3ccc(OC)cc3OC)CC2c2ccccc2O)n1 (stereo not given) | inconclusive: 15.8 µM [inhibitor, single point] | 
12 | COc1cc2c(cc1OC)CN(c1nc(-c3cccnc3)nc3ccccc13)CC2 | inconclusive: 11.2 µM [inhibitor, partial curve, poor fit] | 
13 | O=C(CSC1=NS(=O)(=O)c2ccccc21)Nc1ccccc1 | inconclusive: 35.5 µM [inhibitor, single point] | 
14 | CSc1ccccc1NC(=O)c1cccnc1 | inconclusive: 6.31 µM [inhibitor, single point] | 
15 | CCOc1ccc(NC(=O)Cn2sc3nc(C)cc(C)c3c2=O)cc1 | active: 11.2 µM | 
16 | CC(C)COc1cccc(C(=O)N(CC(=O)Nc2ccccc2C(F)(F)F)Cc2ccco2)c1 | inconclusive: 35.5 µM [inhibitor, single point] | 
17 | CCCCCn1c(=O)[nH]c2cc(C(=O)NCc3ccc(F)cc3)ccc2c1=O |  | inactive: 0.439%
18 | Cc1cccc(CNc2ncnc3ccc(-c4ccccc4Cl)cc23)c1 | inconclusive: 25.1 µM [inhibitor, single point] | 
19 | CCOC(=O)c1c(NC(=O)CSc2nncs2)sc(C)c1-c1ccccc1 | active: 11.2 µM | 
20 | Cc1cccc(OCC(=O)OCC(=O)NCC2CCCO2)c1C (stereo not given) |  | inactive: -3.24%
21 | Cc1cc(Nc2cccc(F)c2)nc(-c2ccccc2O)n1 | inconclusive: 35.5 µM [inhibitor, single point] | 
22 | Cc1cc(C)cc(NC(=O)Nc2ccc(NC(=O)c3ccccc3O)cc2)c1 | inconclusive: 10 µM [inhibitor, partial curve] | 

Row | SMILES | Potency | activity, negative = inhibition
23 | CC(NC(=O)c1ccc(CSc2nc3ccncc3n2Cc2ccc(F)cc2)cc1)c1ccccc1 (stereo not given) | inconclusive: 35.5 µM [inhibitor, single point] | 
24 | Cc1ccc(Nc2nc(NCc3ccccc3)nc3ccsc23)c(C)c1 | inconclusive: 20 µM [inhibitor, single point] | 
25 | O=C1C2C3C=CC(C3)C2C(=O)N1/N=C/c1cn(Cc2ccc(F)cc2)c2ccccc12 (stereo not given) | inconclusive: 3.55 µM [inhibitor, partial curve, poor fit] | 
26 | Cc1ccc2c(c1)C(O)(CC(=O)/C=C/C=C/c1ccccc1)C(=O)N2 (stereo not given) |  | inactive: 10.7%
27 | O=C(NCCN1CCOCC1)C1CCC(=O)N1C1CCCCC1 (stereo not given) | inconclusive: 10 µM [inhibitor, partial curve, poor fit] | 
28 | CC(=O)Nc1cccc(-c2csc(Nc3cc(C)ccn3)n2)c1 | inconclusive: 28.2 µM [inhibitor, single point] | 
29 | O=C(Cn1nnc2ccccc21)c1ccc([N+](=O)[O-])cc1 |  | inactive: -19.7%
30 | COc1ccc(C/C(C)=N/NC(=S)Nc2ccc(Cl)cc2)cc1 |  | inactive: -16%
31 | Cc1ccc(C)c(S(=O)(=O)N2CCN(C(=O)Cc3ccsc3)CC2)c1 | inconclusive: 35.5 µM [inhibitor, single point] | 
32 | O=C(c1ccc(CS(=O)c2ccccc2Cl)o1)N1CCN(c2cccc(C(F)(F)F)c2)CC1 (stereo not given) | inconclusive: 7.08 µM [inhibitor, partial curve] | 
33 | O=C(NCCCCc1ccccc1)c1nn(-c2ccccc2F)nc1CO |  | inactive: 0%
34 | CCCC[C@@H]1CNCCN1CCc1cccc2ccccc12 | inconclusive: 20 µM [inhibitor, single point] | 
35 | O=C(Cc1ccc(Nc2nc3ccc(Br)cc3[nH]2)cc1)NCCc1cccs1 | inconclusive: 25.1 µM [inhibitor, single point] | 
36 | COc1ccc(-c2cc(=O)c3c(O)c(OC)c(O)cc3o2)cc1 |  | inactive: -9.02%
37 | CC(/C=N/NC(=O)Cn1nnc(N)n1)=C\c1ccc(C(C)C)cc1 | inconclusive: 35.5 µM [inhibitor, single point] | 
38 | O=C(Nc1ccc(Cl)c(Cl)c1)c1cc(S(=O)(=O)N2CCN(c3cccc(Cl)c3)CC2)ccc1F | inconclusive: 7.08 µM [inhibitor, partial curve, poor fit] | 
39 | Cc1c(Cl)cccc1NC(=S)NCCc1ccc(Cl)cc1 | inconclusive: 22.4 µM [inhibitor, single point] | 
40 | CC(C)c1nnc(NC(=O)CCC(=O)N2CCN(C3c4ccccc4-c4ccccc43)CC2)s1 |  | inactive: -2.39%
41 | Cc1ccnc2nc(C(=O)OCC(=O)c3ccc(Cl)cc3)nn12 |  | inactive: -3.09%
42 | N#Cc1cccc(Nc2c3c(nc4ccccc24)CCC3)c1 | inconclusive: 22.4 µM [inhibitor, single point] | 
43 | COc1cc2c3nnc(-c4ccc(F)cc4)c-3cn(Cc3cccc(F)c3)c2cc1OC |  | inactive: 40.2%
44 | O=C(Nc1ncccc1O)c1cccc(S(=O)(=O)N2CCCc3ccccc32)c1 | inconclusive: 6.31 µM [inhibitor, single point] | 

Row | SMILES | Potency | activity, negative = inhibition
45 | Cc1cc(NC(=O)CSc2nnc(-c3ccccc3Cl)o2)no1 |  | inactive: -4.21%
46 | COc1ccccc1N1C(=O)C(Cl)=C(N2CCCC2)C1=O | inconclusive: 0.501 µM [inhibitor, full curve] | 
47 | Cc1noc(C(=O)Nc2c(C)nn(Cc3ccccc3)c2C)c1Cl | inconclusive: 3.55 µM [inhibitor, single point] | 
48 | O=C(Cc1ccc(S(=O)(=O)N2CCOCC2)s1)N1CCN(c2cccc(C(F)(F)F)c2)CC1 | inconclusive: 17.8 µM [inhibitor, single point] | 
49 | O=C(NC(=S)Nc1ccccc1N1CCCCC1)c1ccco1 | active: 11.2 µM | 
50 | COc1ccc(-c2ccc3sc4ccccc4c(=O)c3c2)cn1 | inconclusive: 10 µM [inhibitor, single point] | 
51 | COc1cc(C(=O)N(C)CCOc2ccccc2)ccc1OCC(=O)Nc1cccc(C(F)(F)F)c1 | inconclusive: 35.5 µM [inhibitor, single point] | 
52 | CC1(c2nnc(Cc3ccccc3)o2)CC(c2ccc([N+](=O)[O-])cc2)=NO1 (stereo not given) | inconclusive: 35.5 µM [inhibitor, single point] | 
53 | CCn1c2ccccc2c2cc(NC(=O)COC(=O)c3cc(S(N)(=O)=O)c(Cl)cc3Cl)ccc21 | inconclusive: 25.1 µM [inhibitor, single point] | 
54 | CCCCNC(=S)Nc1ccc([N+](=O)[O-])cc1 | active: 11.2 µM | 
55 | CCc1nccn1C(=O)c1cnn2c(C(F)F)cc(-c3ccc(C)cc3)nc12 | inconclusive: 11.2 µM [inhibitor, partial curve, poor fit] | 
56 | O=Nc1c(O)n(Cc2ccc(Cl)cc2Cl)c2ccccc12 | inconclusive: 35.5 µM [inhibitor, single point] | 
57 | COc1cc(-c2noc(C)c2/C=C/c2ccc(OC(C)=O)cc2)cc(OC)c1OC | inconclusive: 5.01 µM [inhibitor, partial curve] | 
58 | CN1CCN(S(=O)(=O)c2ccc(NC(=S)NC(=O)c3ccc(Cl)cc3)cc2)CC1 |  | inactive: 1.49%
59 | Cc1cc(C)cc(C(=O)NC2C(=O)N3C(C(=O)O)=C(CSc4nnc(C)s4)CSC23)c1 (stereo not given) | inconclusive: 7.94 µM [inhibitor, partial curve, poor fit] | 
60 | CN(C(=O)c1cccn(Cc2ccccc2)c1=O)c1ccccc1 | inconclusive: 6.31 µM [inhibitor, single point] | 
61 | CCOC(=O)c1sc(=NC(=O)c2cccs2)n(C)c1C | inconclusive: 14.1 µM [inhibitor, partial curve, poor fit] | 
62 | COc1ccc(CCNc2ccc(S(=O)(=O)N3CCN(C)CC3)cc2[N+](=O)[O-])cc1 |  | inactive: -15.2%
63 | CC(C)c1ccc(-c2noc(SCC(=O)N3CCN(c4ccccc4F)CC3)n2)cc1 | inconclusive: 17.8 µM [inhibitor, single point] | 
64 | O=C(NCc1cccs1)c1ccc2c(c1)sc1nc(-c3ccccc3)cn12 | inconclusive: 12.6 µM [inhibitor, partial curve] | 
65 | CO/N=C1\CCCc2c(C(=O)NN)sc(SC)c21 | inconclusive: 35.5 µM [inhibitor, single point] | 
